Measured values published in paper PMC10567730, “PTPN23 ubiquitination by WDR4 suppresses EGFR and c-MET degradation to define a lung cancer therapeutic target” (Cell Death & Disease, 2023).
These are yes or no findings as the source states them, for the method shown. For some assays here: In cells and extracts the contact can be indirect. Some entries that bind do so weakly or less than the wild type. For some assays here: Tags and fused reporters may be left off the sequences shown.

Protein sequences, listed by entry. Tags and fused reporters are not part of them.
UniProt Q13619: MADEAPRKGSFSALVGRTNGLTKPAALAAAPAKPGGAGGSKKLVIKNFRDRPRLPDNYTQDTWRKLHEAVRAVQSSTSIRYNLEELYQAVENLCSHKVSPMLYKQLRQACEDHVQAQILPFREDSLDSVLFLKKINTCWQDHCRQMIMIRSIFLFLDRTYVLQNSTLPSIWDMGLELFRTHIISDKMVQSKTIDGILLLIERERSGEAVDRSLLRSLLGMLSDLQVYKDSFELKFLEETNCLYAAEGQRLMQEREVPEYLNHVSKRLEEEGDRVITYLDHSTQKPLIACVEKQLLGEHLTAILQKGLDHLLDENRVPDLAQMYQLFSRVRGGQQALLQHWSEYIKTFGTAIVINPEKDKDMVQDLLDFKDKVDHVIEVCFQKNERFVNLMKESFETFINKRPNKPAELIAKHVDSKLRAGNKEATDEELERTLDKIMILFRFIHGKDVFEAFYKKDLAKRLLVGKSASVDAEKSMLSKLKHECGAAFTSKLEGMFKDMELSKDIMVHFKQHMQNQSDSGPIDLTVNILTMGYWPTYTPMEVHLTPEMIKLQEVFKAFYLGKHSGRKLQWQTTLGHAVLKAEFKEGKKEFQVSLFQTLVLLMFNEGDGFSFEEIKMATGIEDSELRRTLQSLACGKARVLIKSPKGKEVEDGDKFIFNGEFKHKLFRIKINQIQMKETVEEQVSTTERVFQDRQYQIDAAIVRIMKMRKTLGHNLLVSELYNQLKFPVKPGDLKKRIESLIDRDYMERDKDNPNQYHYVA
UniProt Q13620: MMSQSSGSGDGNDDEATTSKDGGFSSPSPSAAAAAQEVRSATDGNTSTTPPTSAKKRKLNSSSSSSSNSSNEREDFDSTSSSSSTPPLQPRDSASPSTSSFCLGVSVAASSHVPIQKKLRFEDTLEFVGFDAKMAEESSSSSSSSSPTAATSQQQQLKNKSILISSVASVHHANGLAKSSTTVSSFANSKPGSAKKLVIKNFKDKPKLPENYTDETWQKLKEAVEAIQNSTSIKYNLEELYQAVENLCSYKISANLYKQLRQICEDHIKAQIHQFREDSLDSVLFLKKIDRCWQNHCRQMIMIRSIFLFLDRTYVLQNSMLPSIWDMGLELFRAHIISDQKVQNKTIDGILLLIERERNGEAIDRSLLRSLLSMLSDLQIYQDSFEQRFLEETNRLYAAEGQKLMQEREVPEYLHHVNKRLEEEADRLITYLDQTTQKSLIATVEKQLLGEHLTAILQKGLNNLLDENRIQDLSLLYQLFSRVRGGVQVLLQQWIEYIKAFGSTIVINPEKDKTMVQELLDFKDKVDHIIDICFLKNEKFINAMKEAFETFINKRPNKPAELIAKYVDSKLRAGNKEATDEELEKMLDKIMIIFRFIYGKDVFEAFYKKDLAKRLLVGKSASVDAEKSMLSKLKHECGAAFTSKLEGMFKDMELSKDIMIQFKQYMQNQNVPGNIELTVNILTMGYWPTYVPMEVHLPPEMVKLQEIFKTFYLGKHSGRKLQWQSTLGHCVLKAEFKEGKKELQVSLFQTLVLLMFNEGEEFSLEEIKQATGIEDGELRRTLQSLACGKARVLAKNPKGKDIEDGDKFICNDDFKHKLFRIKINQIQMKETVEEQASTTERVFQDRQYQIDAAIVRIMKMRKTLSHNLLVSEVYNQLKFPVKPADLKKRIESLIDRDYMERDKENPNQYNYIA

T1: endogenous WDR4 (human (endogenous in H1299, HEK293T, H1975)) (UniProt P57081)
T1 sequence: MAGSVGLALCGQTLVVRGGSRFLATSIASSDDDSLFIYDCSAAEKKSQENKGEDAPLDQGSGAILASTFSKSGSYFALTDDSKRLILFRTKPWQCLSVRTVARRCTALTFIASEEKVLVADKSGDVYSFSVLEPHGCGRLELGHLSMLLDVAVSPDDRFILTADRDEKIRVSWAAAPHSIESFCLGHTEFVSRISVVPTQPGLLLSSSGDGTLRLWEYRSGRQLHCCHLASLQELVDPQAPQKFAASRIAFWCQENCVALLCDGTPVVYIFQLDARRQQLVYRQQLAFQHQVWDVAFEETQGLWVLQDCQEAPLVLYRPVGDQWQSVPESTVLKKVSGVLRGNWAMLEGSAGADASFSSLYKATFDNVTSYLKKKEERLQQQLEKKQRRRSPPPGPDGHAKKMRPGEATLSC

T2: GST-WDR4 (UniProt P57081)
T2 sequence: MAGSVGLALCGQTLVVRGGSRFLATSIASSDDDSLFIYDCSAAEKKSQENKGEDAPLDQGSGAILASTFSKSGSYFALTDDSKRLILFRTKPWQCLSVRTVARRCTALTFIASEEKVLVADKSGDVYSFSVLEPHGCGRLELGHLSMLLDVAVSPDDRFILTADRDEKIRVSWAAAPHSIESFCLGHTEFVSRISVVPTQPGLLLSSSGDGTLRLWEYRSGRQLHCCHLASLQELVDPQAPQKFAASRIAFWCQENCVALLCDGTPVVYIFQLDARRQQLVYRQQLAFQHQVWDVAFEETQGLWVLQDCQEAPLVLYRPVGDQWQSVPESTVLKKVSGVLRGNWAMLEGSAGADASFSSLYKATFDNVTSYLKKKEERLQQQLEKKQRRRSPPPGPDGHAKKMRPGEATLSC

T3: WDR4 (co-precipitation with PTPN23 Bro1 constructs in H1299 cells) (UniProt P57081)
T3 sequence: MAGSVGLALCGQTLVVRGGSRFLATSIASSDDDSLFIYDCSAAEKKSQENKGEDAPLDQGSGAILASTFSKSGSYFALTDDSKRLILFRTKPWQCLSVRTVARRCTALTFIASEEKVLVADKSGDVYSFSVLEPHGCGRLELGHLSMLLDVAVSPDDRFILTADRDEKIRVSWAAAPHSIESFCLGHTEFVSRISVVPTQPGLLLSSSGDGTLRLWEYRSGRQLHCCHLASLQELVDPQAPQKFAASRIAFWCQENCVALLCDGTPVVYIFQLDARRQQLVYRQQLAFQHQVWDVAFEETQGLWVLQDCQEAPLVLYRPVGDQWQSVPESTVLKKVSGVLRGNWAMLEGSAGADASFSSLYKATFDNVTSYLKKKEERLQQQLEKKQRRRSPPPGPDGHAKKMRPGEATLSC


How the values were obtained:
[1] = biological target: T1, endogenous WDR4 (human (endogenous in H1299, HEK293T, H1975)); test: proximity ligation; Duolink in situ PLA with antibodies to PTPN23 and WDR4 in H1299 cells
[2] = biological target: T1, endogenous WDR4 (human (endogenous in H1299, HEK293T, H1975)); test: co-IP; endogenous PTPN23 and WDR4 in H1299 cells transiently transfected with GFP-Bro40 or GFP-Bro40mut and treated with 5 μM MG132 for 16 h
[3] = biological target: T1, endogenous WDR4 (human (endogenous in H1299, HEK293T, H1975)); test: co-IP; endogenous proteins from H1299 and HEK293T cells lysed in RIPA buffer
[4] = biological target: T1, endogenous WDR4 (human (endogenous in H1299, HEK293T, H1975)); test: co-IP; endogenous PTPN23 and WDR4 in H1975 cells incubated with Bro40 peptide or vehicle and treated with 5 μM MG132 for 16 h
Myc-Cul4A = Myc-Cul4A (UniProt Q13619); test: co-IP; WDR4-based Cul4 ligase complex purified with anti-Myc beads from HEK293T cells cotransfected with Myc-Cul4A or Myc-Cul4B and other complex subunits; integrity of the input complex shown by blot
Myc-Cul4B = Myc-Cul4B (UniProt Q13620); test: as above
GST-WDR4 = biological target: T2, GST-WDR4; test: pull-down; GST-WDR4 bound on glutathione beads incubated with purified PTPN23 or PTPN23 segments; binding buffer 50 mM Tris-HCl pH 7.5, 150 mM NaCl, 1% NP-40; bound proteins by Western blot; both purified
[5] = biological target: T3, WDR4 (co-precipitation with PTPN23 Bro1 constructs in H1299 cells); test: co-IP; PTPN23 Bro1 or its truncated mutants expressed in H1299 cells (Fig. 6B, C); cells of Supplementary Fig. S5A not stated

Molecule | binding (GST-WDR4) | binding [5] | other results
endogenous PTPN23 (from UniProt Q9H3S7 1-1636) | – | – | binding [1]: binds; binding [2]: binds; binding [3]: binds; binding [4]: binds
GQPDTVQDALRFTMDVIGGKYNSAKKDNDFIYHEAVPALD (peptide, UniProt Q9H3S7 289-328) [GFP-Bro40] | – | – | binding [2]: binds
GST-WDR4 (natural protein, UniProt P57081 1-412, looked up, WDR4 cDNA amplified by PCR and cloned to pGEX-4T-1; pGEX-4T-1 would place GST at the N-terminus (surmised from the vector); also called bacterially purified GST-WDR4) MAGSVGLALCGQTLVVRGGSRFLATSIASSDDDSLFIYDCSAAEKKSQENKGEDAPLDQGSGAILASTFSKSGSYFALTDDSKRLILFRTKPWQCLSVRTVARRCTALTFIASEEKVLVADKSGDVYSFSVLEPHGCGRLELGHLSMLLDVAVSPDDRFILTADRDEKIRVSWAAAPHSIESFCLGHTEFVSRISVVPTQPGLLLSSSGDGTLRLWEYRSGRQLHCCHLASLQELVDPQAPQKFAASRIAFWCQENCVALLCDGTPVVYIFQLDARRQQLVYRQQLAFQHQVWDVAFEETQGLWVLQDCQEAPLVLYRPVGDQWQSVPESTVLKKVSGVLRGNWAMLEGSAGADASFSSLYKATFDNVTSYLKKKEERLQQQLEKKQRRRSPPPGPDGHAKKMRPGEATLSC | – | – | binding (Myc-Cul4A): binds; binding (Myc-Cul4B): binds
Flag-PTPN23 Bro1 domain (purified from baculovirus) (domain or fragment, UniProt Q9H3S7 1-361) MEAVPRMPMIWLDLKEAGDFHFQPAVKKFVLKNYGENPEAYNEELKKLELLRQNAVRVPRDFEGCSVLRKYLGQLHYLQSRVPMGSGQEAAVPVTWTEIFSGKSVAHEDIKYEQACILYNLGALHSMLGAMDKRVSEEGMKVSCTHFQCAAGAFAYLREHFPQAYSVDMSRQILTLNVNLMLGQAQECLLEKSMLDNRKSFLVARISAQVVDYYKEACRALENPDTASLLGRIQKDWKKLVQMKIYYFAAVAHLHMGKQAEEQQKFGERVAYFQSALDKLNEAIKLAKGQPDTVQDALRFTMDVIGGKYNSAKKDNDFIYHEAVPALDTLQPVKGAPLVKPLPVNPTDPAVTGPDIFAKLV | binds | – | –
PTPN23 Bro1 (expressed in H1299 cells) (domain or fragment, UniProt Q9H3S7 1-361) MEAVPRMPMIWLDLKEAGDFHFQPAVKKFVLKNYGENPEAYNEELKKLELLRQNAVRVPRDFEGCSVLRKYLGQLHYLQSRVPMGSGQEAAVPVTWTEIFSGKSVAHEDIKYEQACILYNLGALHSMLGAMDKRVSEEGMKVSCTHFQCAAGAFAYLREHFPQAYSVDMSRQILTLNVNLMLGQAQECLLEKSMLDNRKSFLVARISAQVVDYYKEACRALENPDTASLLGRIQKDWKKLVQMKIYYFAAVAHLHMGKQAEEQQKFGERVAYFQSALDKLNEAIKLAKGQPDTVQDALRFTMDVIGGKYNSAKKDNDFIYHEAVPALDTLQPVKGAPLVKPLPVNPTDPAVTGPDIFAKLV | – | binds | –
PTPN23 M2 segment (residues 108–328) (domain or fragment, UniProt Q9H3S7 108-328) EDIKYEQACILYNLGALHSMLGAMDKRVSEEGMKVSCTHFQCAAGAFAYLREHFPQAYSVDMSRQILTLNVNLMLGQAQECLLEKSMLDNRKSFLVARISAQVVDYYKEACRALENPDTASLLGRIQKDWKKLVQMKIYYFAAVAHLHMGKQAEEQQKFGERVAYFQSALDKLNEAIKLAKGQPDTVQDALRFTMDVIGGKYNSAKKDNDFIYHEAVPALD | – | binds | –
PTPN23 Bro1 (GST pull down of Fig. 6D) (domain or fragment, UniProt Q9H3S7 1-361) MEAVPRMPMIWLDLKEAGDFHFQPAVKKFVLKNYGENPEAYNEELKKLELLRQNAVRVPRDFEGCSVLRKYLGQLHYLQSRVPMGSGQEAAVPVTWTEIFSGKSVAHEDIKYEQACILYNLGALHSMLGAMDKRVSEEGMKVSCTHFQCAAGAFAYLREHFPQAYSVDMSRQILTLNVNLMLGQAQECLLEKSMLDNRKSFLVARISAQVVDYYKEACRALENPDTASLLGRIQKDWKKLVQMKIYYFAAVAHLHMGKQAEEQQKFGERVAYFQSALDKLNEAIKLAKGQPDTVQDALRFTMDVIGGKYNSAKKDNDFIYHEAVPALDTLQPVKGAPLVKPLPVNPTDPAVTGPDIFAKLV | binds | – | –
PTPN23 M2 segment with deletion of residues 289–328 (Δ6) (domain or fragment, UniProt Q9H3S7 108-288) EDIKYEQACILYNLGALHSMLGAMDKRVSEEGMKVSCTHFQCAAGAFAYLREHFPQAYSVDMSRQILTLNVNLMLGQAQECLLEKSMLDNRKSFLVARISAQVVDYYKEACRALENPDTASLLGRIQKDWKKLVQMKIYYFAAVAHLHMGKQAEEQQKFGERVAYFQSALDKLNEAIKLAK | – | no binding | –
PTPN23 Bro1 domain with deletion of residues 289–328 (Δ6), expressed in H1299 cells (domain or fragment, UniProt Q9H3S7) MEAVPRMPMIWLDLKEAGDFHFQPAVKKFVLKNYGENPEAYNEELKKLELLRQNAVRVPRDFEGCSVLRKYLGQLHYLQSRVPMGSGQEAAVPVTWTEIFSGKSVAHEDIKYEQACILYNLGALHSMLGAMDKRVSEEGMKVSCTHFQCAAGAFAYLREHFPQAYSVDMSRQILTLNVNLMLGQAQECLLEKSMLDNRKSFLVARISAQVVDYYKEACRALENPDTASLLGRIQKDWKKLVQMKIYYFAAVAHLHMGKQAEEQQKFGERVAYFQSALDKLNEAIKLAKTLQPVKGAPLVKPLPVNPTDPAVTGPDIFAKLV | – | no binding | –
PTPN23 Bro_Δ6 (GST pull down of Fig. 6D) (domain or fragment, UniProt Q9H3S7) MEAVPRMPMIWLDLKEAGDFHFQPAVKKFVLKNYGENPEAYNEELKKLELLRQNAVRVPRDFEGCSVLRKYLGQLHYLQSRVPMGSGQEAAVPVTWTEIFSGKSVAHEDIKYEQACILYNLGALHSMLGAMDKRVSEEGMKVSCTHFQCAAGAFAYLREHFPQAYSVDMSRQILTLNVNLMLGQAQECLLEKSMLDNRKSFLVARISAQVVDYYKEACRALENPDTASLLGRIQKDWKKLVQMKIYYFAAVAHLHMGKQAEEQQKFGERVAYFQSALDKLNEAIKLAKTLQPVKGAPLVKPLPVNPTDPAVTGPDIFAKLV | no binding | – | –
